# Source: article PMC10516938, “Conformational dynamics of cohesin/Scc2 loading complex are regulated by Smc3 acetylation and ATP binding” (Nature Communications, 2023)
# Residue numbers refer to the chain shown, from its start. Names and notes keep the numbering of the source. Results are given in words; binding and its absence hold for the method and conditions named. Binding seen in cells or lysates may run through a third protein. Some binding calls cover weakened binding; strength is not graded here.
# T1: Smc3^QQ R1008I S72C (S. cerevisiae) (UniProt P47037)
# T1 sequence: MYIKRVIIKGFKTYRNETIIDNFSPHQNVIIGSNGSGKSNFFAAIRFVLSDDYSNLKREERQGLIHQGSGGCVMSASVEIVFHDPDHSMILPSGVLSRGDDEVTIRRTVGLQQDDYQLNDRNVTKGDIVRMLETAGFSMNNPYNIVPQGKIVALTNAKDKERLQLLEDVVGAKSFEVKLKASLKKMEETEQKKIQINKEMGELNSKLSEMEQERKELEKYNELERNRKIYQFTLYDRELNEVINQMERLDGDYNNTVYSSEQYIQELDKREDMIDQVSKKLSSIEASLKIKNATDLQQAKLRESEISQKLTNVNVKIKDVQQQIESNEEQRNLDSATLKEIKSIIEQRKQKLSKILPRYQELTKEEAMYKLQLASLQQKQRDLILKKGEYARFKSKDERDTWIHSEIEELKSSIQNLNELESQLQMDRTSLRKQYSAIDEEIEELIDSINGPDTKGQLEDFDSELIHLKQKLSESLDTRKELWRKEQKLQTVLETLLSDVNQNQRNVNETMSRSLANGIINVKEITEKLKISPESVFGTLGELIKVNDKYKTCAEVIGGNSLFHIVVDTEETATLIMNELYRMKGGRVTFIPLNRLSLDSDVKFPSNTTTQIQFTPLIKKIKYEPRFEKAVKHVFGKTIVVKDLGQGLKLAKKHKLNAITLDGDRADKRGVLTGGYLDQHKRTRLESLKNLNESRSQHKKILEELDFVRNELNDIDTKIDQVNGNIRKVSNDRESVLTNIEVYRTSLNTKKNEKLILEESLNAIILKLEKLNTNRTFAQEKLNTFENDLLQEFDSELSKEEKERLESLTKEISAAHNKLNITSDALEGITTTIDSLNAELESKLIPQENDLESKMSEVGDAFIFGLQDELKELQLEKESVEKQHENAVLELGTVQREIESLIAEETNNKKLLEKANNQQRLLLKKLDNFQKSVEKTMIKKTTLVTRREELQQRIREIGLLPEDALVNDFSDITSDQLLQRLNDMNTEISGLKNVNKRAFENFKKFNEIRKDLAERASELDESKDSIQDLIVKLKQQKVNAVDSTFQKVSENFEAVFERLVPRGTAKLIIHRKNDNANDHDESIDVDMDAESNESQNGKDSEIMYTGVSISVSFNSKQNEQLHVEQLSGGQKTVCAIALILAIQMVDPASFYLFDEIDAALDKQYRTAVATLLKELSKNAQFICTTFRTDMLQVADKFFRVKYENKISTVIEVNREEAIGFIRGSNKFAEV
# T2: Smc1 E1102C E1158Q (S. cerevisiae) (UniProt P32908)
# T2 sequence: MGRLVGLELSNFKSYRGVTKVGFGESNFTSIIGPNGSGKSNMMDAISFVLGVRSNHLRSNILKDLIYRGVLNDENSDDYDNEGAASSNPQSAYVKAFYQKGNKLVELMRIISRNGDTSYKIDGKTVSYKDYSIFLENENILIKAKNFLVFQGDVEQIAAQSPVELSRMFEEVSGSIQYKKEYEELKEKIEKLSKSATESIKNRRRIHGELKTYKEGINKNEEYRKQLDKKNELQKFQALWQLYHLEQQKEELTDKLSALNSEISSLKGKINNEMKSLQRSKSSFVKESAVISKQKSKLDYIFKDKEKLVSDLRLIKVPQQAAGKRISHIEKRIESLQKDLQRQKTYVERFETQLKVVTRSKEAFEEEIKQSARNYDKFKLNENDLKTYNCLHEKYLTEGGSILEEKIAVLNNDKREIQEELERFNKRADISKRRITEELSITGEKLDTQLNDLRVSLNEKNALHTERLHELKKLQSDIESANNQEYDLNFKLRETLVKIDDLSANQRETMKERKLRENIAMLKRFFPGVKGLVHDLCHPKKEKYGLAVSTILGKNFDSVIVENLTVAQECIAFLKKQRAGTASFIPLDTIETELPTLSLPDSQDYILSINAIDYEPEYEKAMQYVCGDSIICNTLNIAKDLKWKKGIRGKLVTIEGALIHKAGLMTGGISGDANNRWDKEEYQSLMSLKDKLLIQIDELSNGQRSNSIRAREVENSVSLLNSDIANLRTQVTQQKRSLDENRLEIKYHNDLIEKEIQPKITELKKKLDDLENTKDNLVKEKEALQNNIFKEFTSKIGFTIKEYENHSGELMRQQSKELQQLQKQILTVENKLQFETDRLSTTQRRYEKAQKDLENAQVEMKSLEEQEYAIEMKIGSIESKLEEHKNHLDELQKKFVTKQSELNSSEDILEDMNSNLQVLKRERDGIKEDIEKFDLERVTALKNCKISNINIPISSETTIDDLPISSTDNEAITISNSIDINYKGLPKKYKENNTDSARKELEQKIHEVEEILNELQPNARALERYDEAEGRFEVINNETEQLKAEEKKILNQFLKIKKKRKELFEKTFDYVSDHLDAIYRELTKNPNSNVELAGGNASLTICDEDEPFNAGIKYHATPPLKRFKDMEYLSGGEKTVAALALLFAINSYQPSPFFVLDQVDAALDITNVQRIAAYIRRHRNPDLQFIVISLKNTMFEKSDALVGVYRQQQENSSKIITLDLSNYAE
# B1: Scc2 E819C (natural protein, S. cerevisiae, UniProt Q04002 1-1493, looked up)
# chain: MSYPGKDKNIPGRIIEALEDLPLSYLVPKDGLAALVNAPMRVSLPFDKTIFTSADDGRDVNINVLGTANSTTSSIKNEAEKERLVFKRPSNFTSSANSVDYVPTNFLEGLSPLAQSVLSTHKGLNDSINIEKKSEIVSRPEAKHKLESVTSNAGNLSFNDNSSNKKTKTSTGVTMTQANLAEQYLNDLKNILDIVGFDQNSAEIGNIEYWLQLPNKKFVLTTNCLTKLQMTIKNITDNPQLSNSIEITWLLRLLDVMVCNIKFSKSSLKMGLDDSMLRYIALLSTIVLFNIFLLGKNDSNLHRESYIMEPVNFLSDLIESLKILTIEYGSLKIEFDTFQEALELLPKYIRNGPFLDDNVTAKLVYIFSDLLMNNDIEATTNIQFQSFWDNVKRISSDILVSLFGSFDQQRGFIIEELLSHIEKLPTKRIQKKLRKVGNQNIYITDFTFTLMSMLENINCYSFCNQMKDIAPENIDLLKNEYKKQEEFLFNIVEHINDTILERFFKNPSALRYVIDNFVQDLLLLISSPQWPVTEKILSSLLKRLLSVYSPSMQVSANIETICLQLIGNIGSTIFDIKCSTRDHEDNNLIKMINYPETLPHFFKSFEECIAYNETIKCRRSATRFLWNLRLGTILILEEYTKDAKEQIITVDNELKKILEQIKDGGLGPELENREADFSTIKLDYFSILHAFELLNLYDPYLKLILSLLAKDKIKLRSTAIKCLSMLASKDKVILSNPMVKETIHRRLNDSSASVKDAILDLVSINSSYFEFYQQINNNYNDDSIMVRKHVLRINEKMYDETNDIVTKVYVIARILMKICDEEDNIIDMARLILLNRWILKVHEVLDQPEKLKEISSSVLLVMSRVAIMNEKCSQLFDLFLNFYLLNKEAHSKEAYDKITHVLTILTDFLVQKIVELNSDDTNEKNSIVDKQNFLNLLAKFADSTVSFLTKDHITALYPYMVSDEKSDFHYYILQVFRCTFEKLANFKQKFLYDLETTLLSRLPKMNVREIDEAMPLIWSVATHRHDTARVAKACSSCLSHLHPYINKANNEEAAIVVDGKLQRLIYLSTGFARFCFPKPSNDKIAFLQEGETLYEHITKCLLVLSKDKITHVIRRVAVKNLTKLCGNHPKLFNSRHVLHLLDKEFQSDQLDIKLVILESLYDLFLLEERKSVRNTGVNSTLSSNSILKKKLLKTNRVEFANDGVCSALATRFLDNILQLCLLRDLKNSLVAIRLLKLILKFGYTNPSHSIPTVIALFASTSQYIRHVAYELLEDLFEKYETLVFSSLSRGVTKAIHYSIHTDEKYYYKHDHFLSLLEKLCGTGKKNGPKFFKVLKRIMQSYLDDITDLTSTNSSVQKSIFVLCTNISNITFVSQYDLVSLLKTIDLTTDRLKEVIMDEIGDNVSSLSVSEEKLSGIILIQLSLQDLGTYLLHLYGLRDDVLLLDIVEESELKNKQLPAKKPDISKFSAQLENIEQYSSNGKLLTYFRKHVKDT
# notes: Scc2, S. cerevisiae; source: S. cerevisiae W303, in vivo, whole-cell extract
# B2: Scc2 T1281C (protein, UniProt Q04002 1-1493)
# chain: B1 chain with C819E, T1281C
# What was measured:
# [1] = target: T1, Smc3^QQ R1008I S72C (S. cerevisiae); assay: cross-linking; in vivo BMOE cross-link of cysteine pairs in yeast cells arrested in late G1 by non-degradable Sic1(9m); Scc1-PK immunoprecipitated, western blot, band intensities quantified
# [2] = target: T2, Smc1 E1102C E1158Q (S. cerevisiae); assay: as above
Binder,binding [1],binding [2]
B1,binds,
B2,,binds
